# Measurements as given in the RNAGym collection of RNA variant scans (doi:10.1073/pnas.2313332121).
# Variants at the background level are over-represented here.
# B1: TPR 5TU (parent)
# chain: GGAUCUUCUCGAUCUAACAAAAAAGACAAAUCUGCCACAAAGCUUGAGAGCAUCUUCGGAUGCAGAGGCGGCAGCCUUCGGUGGCGCGAUAGCGCCAACGUUCUCAACUAUGACACGCAAAACGCGUGCUCCGUUGAAUGGAGUUUAUCAUG
# Variants of: B1
# Test: polymerase ribozyme fitness, log enrichment relative to wild type (log ratio); higher = more active; in vitro selection for triplet polymerase activity
# Procedure, shortened: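 For each subunit of a heterodimeric triplet polymerase ribozyme, a mutant library was built by PCR and transcribed, then taken through a single in vitro selection round in triplicate. Selection involved annealing to a biotinylated primer, the partner subunit and triplets, incubation frozen at −7 °C, gel excision of extended constructs, capture on streptavidin beads and RT-PCR. Genotypes were retained after Illumina sequencing of inputs and outputs only with ≥10 input reads and ≥1 read in each output. Fitness is defined as the logarithm of a genotype's enrichment relative to wild-type enrichment, using inverse-variance-weighted averages across replicates, with the logarithm taken to base 2.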
row,Variant,polymerase ribozyme fitness (log ratio)
1,A16U G80A C132G,≤ -4.2
2,A16C A22U A39U U56G U61A A91U,≤ -4.2
3,A16C C32U,-2.43
4,A17G A21G C96G,0.392
5,A17G G59U G80A C85A,-0.447
6,A16U U31G G50U C75U G84A U148G,≤ -4.2
7,A16U C27A A28U C54U C75U G92C G136U,≤ -4.2
8,A16U A39U A73G U77G C93A,≤ -4.2
9,A16C U44G A47G C51A A60C U77A,≤ -4.2
10,A17G A29U G67U G100A C123G C132G,≤ -4.2
11,A16U C57A C99G U104C,-3.73
12,A17C A39U A47C A137G C149A,≤ -4.2
13,A16C A21U C87U U111G U145A,≤ -4.2
14,U15G C116U,0.239
15,A16G C114G G133C,≤ -4.2
16,U15G C57A C75U U78G C93U C108U A110G,≤ -4.2
17,A17G A21U C27U C54U U90C G94A C131U,≤ -4.2
18,A17C C35A G68C C69A A91U A106C,≤ -4.2
19,A16G A17U C32U U33G U55G A91G A97U A120U G141C,≤ -4.2
20,A16C G141A,-0.406
21,A17C A30U G84C C85A C103G,≤ -4.2
22,A16C U33C U77A,≤ -4.2
23,A17C U44G C85G C93U G141A,≤ -4.2
24,A17C A39U G58A C95A G141C,-2.82

row,Variant,polymerase ribozyme fitness (log ratio)
1,A17C A21C C72G C75G C93G A147C U151G,≤ -4.2
2,A17C C38A U55G G86U C116G A122G,-2.93
3,A17G A26G U55A A73G C93A G100C C131A G133C U148A,≤ -4.2
4,A16U G86A A91U A106G C108U C129A,≤ -4.2
5,A17C U31C G50C C51A,-0.997
6,A16G A40C U77A C87U G133A G152U,≤ -4.2
7,A16U C131A U135C,≤ -4.2
8,A16U A60C U61A A66C,≤ -4.2
9,A16C G84U A120G,-2.78
10,A16U A17G G59C U77G G94U,-3.85
11,A16U A30C A47G G58A U111A,≤ -4.2
12,A16C A21G C54A C95A,-3.07
13,U15G U56G U77C C87G G94A U104G A106U C123U,≤ -4.2
14,A16C G50C A64G C85A G92C G143A,≤ -4.2
15,A16G A29U A40C C57U G62A A115G C149U,≤ -4.2
16,A16U A29C C35U A41C G86A A98U C114U G141U U145G,≤ -4.2
17,A17G A20U U44A A60C A91C C129A,≤ -4.2
18,A16G C93G,-4.02
19,A16U C35G C36U C95U,≤ -4.2
20,A16C C51G U77G C87A C103A U109A,≤ -4.2
21,A16G U33G C35G C87A,≤ -4.2
22,A17G A24C A39G A52C U56A G67A A98U C103G G133A,≤ -4.2
23,A16U A21G C85G C93A C116A A150U,≤ -4.2
24,A16U U31A A64U C85U A91G C131A,≤ -4.2

row,Variant,polymerase ribozyme fitness (log ratio)
1,A16U A28U A37C G42U U56A C95A,≤ -4.2
2,A17G C27G A66G A107G A115C,≤ -4.2
3,A17U A22C A29C G48C C54U,≤ -4.2
4,A16C U33A G58U C75U C85A G94U,≤ -4.2
5,A16C G94A C116G,-0.496
6,A16G C57A G62A C96U,-1.89
7,A16C C35G G50A G58A G80U C95A C105U A113C,≤ -4.2
8,A17C C57G C99G C103G,≤ -4.2
9,A17G A21G C57U C96A A137U A138G,≤ -4.2
10,A16U U55A A91G G117U,≤ -4.2
11,A16U A41G A49G C72U C85U G128U,≤ -4.2
12,A16C G34C A49C U77A A91C,≤ -4.2
13,A16G G25U A150G,-3.86
14,U15G G62A G83C C108U C125G,≤ -4.2
15,A16U G34A G70A C95G A97C U101G C105U G140C,≤ -4.2
16,A16G A17U G34C A47U C87U,≤ -4.2
17,A17C G92C,0.012
18,A16U A24G A26U G92U G94U U104G A106C G143A U145G,≤ -4.2
19,A16G A24U C35A U61A C75A G124C G126U,≤ -4.2
20,A17G G143U,-2.24
21,A16U U56A C96A,-3.23
22,A17C A23U A91U G112U G140C,≤ -4.2
23,A16U C57G G67U G86U A91G,≤ -4.2
24,A17G G62C G81A,-1.76

row,Variant,polymerase ribozyme fitness (log ratio)
1,A17G A28U G71A A121G,≤ -4.2
2,A17G U44C U61A,≤ -4.2
3,A16C A17C G25U C79A C87A A150G,≤ -4.2
4,A16C A40G A49U G84A A98G G117A A122G U151C,≤ -4.2
5,A16C A26U,-2.62
6,A17C U31G C43G U53A A73G U90A G92A C116G,≤ -4.2
7,A17G A39U C43U,≤ -4.2
8,A16U A22C G42C G71A U146A,≤ -4.2
9,A17U A19C A23C A52G U130A U144G,≤ -4.2
10,A16G C27U A66U C93U A107G G136U U144C,≤ -4.2
11,A16U A41C G62A G67A C87U A107G G141C G152A,≤ -4.2
12,A16U G94C,-2.55
13,A16G A17G C18A G58C A60G C95A U144C A150C,≤ -4.2
14,A16U A24C G58C U61A G67C G68A U77G C96G U127G U139G,≤ -4.2
15,A16C C18G A20G A30U G58C A64G C75G C93G C132G,≤ -4.2
16,A16G C54U,-0.601
17,A17G G86U A97U,-2.08
18,A16U U82G C95U U135G A137G G140C,≤ -4.2
19,A16C A49G A52U C72A C85U A121G U145G,≤ -4.2
20,A16G C32U C72A C76U C85G A107U,≤ -4.2
21,A16U G42U U45C A73G U78A G92A C123A G143C,≤ -4.2
22,A16U A19U C103G,-4.18
23,A16C U45G A106G,-0.613
24,A16G G83U A107U A142C,≤ -4.2

row,Variant,polymerase ribozyme fitness (log ratio)
1,A16G G126A G143A,-3.34
2,A17C A47G A52G G84C C108A U144G,≤ -4.2
3,A16C A24C A37C A40C C95U,≤ -4.2
4,A16U C57G G68A G81A C96G A137G G143C U144A,≤ -4.2
5,A16U C69A U145G,-3.75
6,A17G A39C U82G C85U A113U,≤ -4.2
7,A17G C51U C75A G86A A113C C132A U144G,≤ -4.2
8,A16U C18G U53A C85G U109G A120G,≤ -4.2
9,A16U C35U G58A C96G C114U,≤ -4.2
10,A16U C43U U77G C85A G117A,≤ -4.2
11,A16C A17C A20U A30U A37C U55G C93G C103A A119G,≤ -4.2
12,A17G A29C C32G G48C,≤ -4.2
13,A16C C57U C129U G143A,-1.91
14,A16C A60U C72U G100U C125U C129U,≤ -4.2
15,A16G A28U G34U C69U C93G C105G C116U,≤ -4.2
16,A16U U53A C79G U82G C118U G136C,≤ -4.2
17,A16U C32U A66G C75U G92U C99A C125G G136U G141U,≤ -4.2
18,A16G G42A A52G C95U C96A C99G,≤ -4.2
19,A17C A28C C93G C131U,≤ -4.2
20,A16C U31G G50A C95A A138G,≤ -4.2
21,A17C A26G C96U G140A,≤ -4.2
22,U15G C54U G94C U127G G141C,≤ -4.2
23,A16U A37U U56C A91U U104G,≤ -4.2
24,A16C C87U G128U,≤ -4.2

row,Variant,polymerase ribozyme fitness (log ratio)
1,A16C U45A U56G A66G G92C C108G G124U,≤ -4.2
2,A17C C27A C103G A107G C116A G143U,≤ -4.2
3,A16G A19U G46A C54G A66G C95U A142U,≤ -4.2
4,A16U A37U C75U U148G,≤ -4.2
5,A16U C43A C69A C85A C103A G126U U151G,≤ -4.2
6,A16G A17G U56G U61G G68A C72U C114G G143U,≤ -4.2
7,A16G A20U C36U U55A G62A C85A,≤ -4.2
8,A17G C27G A73G C95A C99U U104G G117U U148C,≤ -4.2
9,A17G U33G C79G G84A U134G,≤ -4.2
10,A17C A26G A41C C54A C72U C87A G100C G143U,≤ -4.2
11,U15G U44A A60G U61A G62U C87G A91G C96A A110G U146C,≤ -4.2
12,A16U A23U A37U A41G G88C,≤ -4.2
13,A16G G42C C54G G70A C87A C99U A113C G141U U151C,≤ -4.2
14,A16C C35U G50U G58C A64G C79A C99U U146C U151G,≤ -4.2
15,A17G G48U C87U A89U A119C,-2.96
16,A17U A20U A37U G48U C96A U101C,≤ -4.2
17,A17U A21C G88U C93A U101C C105G C116U,≤ -4.2
18,A16U A22G A30U U45A A49G G143C,≤ -4.2
19,A16C C32A C51U A91U U104C U145A,≤ -4.2
20,A16U C57A,-1.96
21,A16C A29U A41U G50C U135G G140C U148C,≤ -4.2
22,A16G A24C A49G A52C A122C,≤ -4.2
23,A16C C27A C85G C99U A106C,≤ -4.2
24,A17C U56A C76A C131A U134G,≤ -4.2

row,Variant,polymerase ribozyme fitness (log ratio)
1,A17G C38A U45A C69A C85U A142C C149U U151G,≤ -4.2
2,A17G C18G A20U U53A C93A C96U C125A,≤ -4.2
3,U15G C54G C87G,≤ -4.2
4,A16U A52U G74A C87A A119U U148G,≤ -4.2
5,A16G C38A U90G,≤ -4.2
6,A16U C35A A47G G74A G80C G92U U135A,≤ -4.2
7,A16G U31C C69U G88C,≤ -4.2
8,A16C A40U A137C,≤ -4.2
9,A17G A22C U61A G84U C96U U109A U111A G141A,≤ -4.2
10,A17G A19U A29U G48C A52C G83A C131G U148C,≤ -4.2
11,A17U A22C C76U G86U A91C U144G,≤ -4.2
12,A16G G83U G92A C96U,≤ -4.2
13,A16C G48U C54A A64G,≤ -4.2
14,A16C A17G G58U C87A C93A,≤ -4.2
15,A17G A37G U44G G68C A89U C96U G117U A142G,≤ -4.2
16,A17G A23U G92A C118U,≤ -4.2
17,A16G A20U A28G A89U A91U,≤ -4.2
18,A17C A26U C69A C79A C85A G94A A147U,≤ -4.2
19,A17C A28U C43A C76A G83C C93A,≤ -4.2
20,A16G A39C,-2.62
21,U15G G94C A115C C116G,-3.85
22,A17G C51U U55G C79U G83U C95A C118G U145C,≤ -4.2
23,A16U C51U A60G A89U C93U G117U A121C A138G G141C,≤ -4.2
